This passage reports binding signal (log2 normalized intensity) results from PMC10726135.

The other results are listed elsewhere or left out. At the low end of the ranking the order means little. The protein was read in a cell extract, so binding may be indirect.

This test has as its target T1, HNF4alpha2 (COS-7 nuclear extract) (UniProt P41235).
T1 sequence: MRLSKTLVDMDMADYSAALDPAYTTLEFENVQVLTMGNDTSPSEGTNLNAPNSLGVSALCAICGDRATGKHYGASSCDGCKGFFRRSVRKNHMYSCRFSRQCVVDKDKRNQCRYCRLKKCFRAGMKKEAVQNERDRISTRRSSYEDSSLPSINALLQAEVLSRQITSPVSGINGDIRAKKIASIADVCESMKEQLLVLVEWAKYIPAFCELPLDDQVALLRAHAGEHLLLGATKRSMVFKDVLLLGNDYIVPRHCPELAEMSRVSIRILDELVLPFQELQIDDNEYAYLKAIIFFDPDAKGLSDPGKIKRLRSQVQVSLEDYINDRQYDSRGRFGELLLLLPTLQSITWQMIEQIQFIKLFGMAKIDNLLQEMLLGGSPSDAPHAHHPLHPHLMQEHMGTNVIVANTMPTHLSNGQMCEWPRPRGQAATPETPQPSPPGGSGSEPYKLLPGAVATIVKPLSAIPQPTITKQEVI
The test can be described thus: protein-binding microarray. The following applies: COS-7 nuclear extract on double-stranded Agilent 4x180k PBM; binding buffer, salt, pH and temperature not given; high values mean tight binding; double strand, one strand shown; sequences stand for … in …GCCTAGGGAGATTAGAGTATCGGTCGA
Turning to AGGCAGCTAGGCAGGCTCAGAACTACCAAT, the binding signal (log2 normalized intensity) is -1.14.
Regarding GACAAAGTGTCACAAACTATCAGTGAAGAG, the binding signal (log2 normalized intensity) is -0.865.
The result for ATTCTCTTATCTACTTTAAGATTTGACCCT reads 5; that for CCCAGAGGTCACACTGATACAGCATGGCCC, -1.1.
The result for GCCTCAGATTAATGTCAGCCTGCTCAGGGA reads -1.22; that for GGTTCCCCTTCCCCCAACAGGGCTCCTGTT, 3.41.
The value for TGAGTGCTTCTTGAATGAAGGAACAGGTTC was 0.988; that for ATGATCAAAGGTTAGTCTTAGGACCACATG was 2.49; that for ACAGAAATCATGTAGCCAGATAAGAGCTAT was -1.17.
Take GGCAAAATGGCATATCTAGGATCACGCCAT: the binding signal (log2 normalized intensity) is -1.21.
The value for CCGCCTCCACACCCCAGCCTGCCCTCCTAG was 3.47; that for ACTGCAGAAACTCTGCAGTAACTGTCATGG was 0.921; that for TACTGGATATAGCCAGATGTCCTTTGAAGA was 1.2.
The result for AATCTGGCTAATGCATGTCCCTCCTCAACC reads 1.34.
Consider GGTGGACATGGTTCACTGATTACTGGATGT, for which the binding signal (log2 normalized intensity) was found to be 1.82.
Consider TCATGATGGGAAGCCTCAGGAGTTGGAGGA, for which the binding signal (log2 normalized intensity) is -0.851.
Regarding GGGGAGCAGGCAGAGGAACAGAGGGGTCTG, the binding signal (log2 normalized intensity) was -0.908.
The value for GATATTTTGAGGGCTCAAAGGTTACCACCC was 4.06; that for CGACTGGGCCAGGAGCAGGAGCAGAAGCAG was -1.03.
The value for GAAAAGAAATGTAGTGACAGAAGGGAGAGT was -1.14; that for TAGTAAATATTAGGCAAGCTAAGATGAGGG was -0.853.
The value for TTATCTGAATCTGGAATCACGTTCGCCTAA was -1.16; that for TTTCTGAACACTCCAAGGTGTCCAGCTTAG was -1.1; that for GGCTTTATCTGTGAGAATCCCAGCTCGTGG was -1.09.
As for CCTGAAAGGCCAAGCCAGTTTCCAGGGAGG, the binding signal (log2 normalized intensity) was -1.12.
The value for AGGTGCAAAGTACATATTTACTTACCTTTT was 3.37; that for AGCAAGAATGTAAATAGCTAGGTACTTTGA was 1.42; that for ATATTGCAGTGTAGATTAAATCCTCGAAGA was -0.897.
In the case of GATTTCTAGTTAATATCTAAGATGTAGCTG, the binding signal (log2 normalized intensity) was -0.751.
For GTCAGGGTTCTCAGACCACCAGCTGCTTCG, the binding signal (log2 normalized intensity) was -1.04.
The value for AATGATACCAACAGGCTTAACATAAAGGGT was -0.71.
The result for CAATAATCTTTGCCCTTGAAGATACAGTTA reads 1.83; that for CCTTGAAACCCCTCCTTACAGTGCCCTCTG, 3.94.
The result for TTTTTTCTTATCTCACTGGATGTGTACCTC reads 2.21.
CCCACAGGGGTAGAAGCTGAGCAGCAATCA: the binding signal (log2 normalized intensity) was -1.16.
For GCCAAACTCTCACTCTACTCTCTTTGGAGT, the binding signal (log2 normalized intensity) worked out at 0.872.
The result for TAGACTTTGCTTTCTTGGAGGTTAACATTT reads 2.37; that for TTGTGGCATCAGGGTCCACAAGGGTTTAAA, 1.92.
The result for TGATTACACAGGCCTTATAGGGCATACCCT reads -0.631; that for CCTTGCACTATTGACCCAGTGAAACAACAC, 1.65; that for CATGCTCTTGGAATGTTGAACCTTTCTTTG, 2.64.
The value for TTTATAATCCTAGCTTGGTTTTTCTGGGAC was 1.36.
With ACTGTCTGCTATGTGTATATGAGTGTATAG, the binding signal (log2 normalized intensity) was found to be 1.35.
The result for ACGAAGGCATTCTTAACAAAACCTGTTTAG reads -1.01; that for AAGGTACTTATCAGAGGAAATTCAGATCAA, -1.06.
The value for AAGATAATGGGTCCGAAGGTCAGCTGACCA was 5.02; that for ACACAGGAAGGGGGATGTCTTTTAGAAGCT was -1.05; that for AGAGCCCCCTTGATGCATCAGACCCCTGAG was 4.13.
The result for CATAAAACATTCTATTCTATCTGTATTCTG reads 1.41; that for GGCACCAACACTTCCCAATCAGAAACCGGG, -1.16; that for TTCCCTTTATTTAGCCTCACTAAGATAGGG, 0.266.
In the case of GTTTTTGATTTTGCAGGCTGATAGGCAGAA, the binding signal (log2 normalized intensity) was determined as 0.548.
The value for GTTAATTATAATCGCAGAATAAACGCTGAA was -1.09; that for CTGCAATCAGAGCTGGATGTGAGTTATGAC was 0.741.
The result for AGTTTGCTGTCTTGACTTGGTTCGGGTTTT reads 1.65; that for AGTGTCTCTACTGTCCATCTTTTGCCCCTC, 4.53.
Turning to ACCTCCCGTGCCCCCTTTTGCTTTCCGTTA, the binding signal (log2 normalized intensity) came out at 2.65.
The value for CTGAACCTCTGTCTCTCAGGCACAGCTCGA was -1.05.
The value for CTCAGAAATCCCCAAACTTAAAAGAAGCTA was -0.882; that for CCCCAGAGGAAGACATCATATTTGTTATAT was 1.24; that for ATTGGGATGGAGTAACTTGCTAAGTATAAA was -0.531.
Consider TAGAGTGGAGTGAAGTAAGAGTAGCAGAAG, for which the binding signal (log2 normalized intensity) is -0.955.
The value for GAACTTTGTTTGTGTTTCCCTCCCTGGTAT was 2.7.
The result for TTACTTTTGCAAGGTTTGTTCTTATCATGC reads 1.26; that for CAGTTTATTTACTGTCCTCAAACTGTCACC, 0.886; that for CAGATCACATTGTTTTGGAGTTAGCTGTCT, 1.24.
The result for CCCAGTTGCCTTCCTGTTAGATAGAGGAGT reads -0.822; that for TTGAGGCCTTCGTTGGAAACGGGATTTCTT, -0.965.
As to CAGGTGTGTGGCATCTTGGGGTCAAGGCCT, the binding signal (log2 normalized intensity) was determined as 2.63.
The result for AGCTCTTGGGGAACAATCGCCACTGATTGA reads -1.21; that for ACCTTATCAAGTCCGAACTCACTACAAACG, -1.07.
The value for CACCTCTTCAGATAGCCTTTGCCTCCACCT was 1.15.
The result for AGAGGGAAGACCAAAGGCCAAAGAGCAAAG reads 0.518.
Turning to GACTCAGCTCCCATAGAGTCCACCACTGAC, the binding signal (log2 normalized intensity) was -0.67.
Turning to ACCACAAAGCAGTGAGTGAAACATCCCACT, the binding signal (log2 normalized intensity) was -1.18.
The value for GCAGGGCTACTGTGGTTCCCAAGAAGAGCC was -1.11; that for ATTTACCGTCTCTCACCAAATCCCTGCCCA was 1.57.
The result for ACTGTTTGTGCAGAGGAGATCAGAGGAGGC reads -0.727.
The value for AAGTTTAATCCTCTCACCCAAGATCAAAGA was 2.84.
With TCTGCTACTAACTGCATGACTTCAGAAAGT, the binding signal (log2 normalized intensity) is -1.05.
The value for CGAAGAGCAGCCAGCTGCAGAGGAAGGACA was -1.06; that for GACGACTGTCTGCCATGGGCCTGGCTGAGC was -1.15; that for AAAGGATCAACTTTCAGAAGGGGACAAGCA was -1.13.
Take GAAGGCTCCCAAGGTATCCTCCTAGAGTCC: the binding signal (log2 normalized intensity) was -1.04.
The result for ACAAATTAGACAAGGTTTGTAACAAGTGCT reads -1.07.
The value for ATACAAACAAATTGTGTGCAACAGGAGCCC was -1.13; that for AACTACAGTTGACCTTTGAACACCACAAGT was 7.56; that for GGCCTCCCCATCCTCATGACAGTACCTCTC was 2.32.
With CTCCTCCTCGTGAGTTGGAGACAGGAGAGG, the binding signal (log2 normalized intensity) was -0.979.
The value for GCAGCTAGCTCCAGTTGGTTGCTAAGAGAC was -1.2; that for TCCCAAGCATGTTTGGTGACCCGTGACCCT was 5.07.
The value for GACCCTTCATAGCTTACTTGACAAATGGGG was 0.297; that for TAGATAGGAATCTGGATGGCTGAGCTGTAA was -0.513.
